# Data taken from the supplement of paper PMC4166925.
# ± gives the standard deviation of the averaged measurements. Whole data set: some 33,000 sequences, median “E-score (dimensionless, -0.5 to 0.5)” near -0.046, cut for the highest 2% near 0.36. Some of the results follow.
# System: T1, SpTbr T-box DNA-binding domain (GST fusion)
# T1 sequence: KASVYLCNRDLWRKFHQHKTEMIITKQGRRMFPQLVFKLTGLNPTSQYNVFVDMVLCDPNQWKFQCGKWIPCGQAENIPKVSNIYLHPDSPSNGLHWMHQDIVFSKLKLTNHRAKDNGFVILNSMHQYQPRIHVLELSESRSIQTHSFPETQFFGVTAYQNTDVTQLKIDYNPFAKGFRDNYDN
# Assay: PBM E-score of 8-mer (E-score (dimensionless, -0.5 to 0.5)); Tbr is Tbrain of the sea star Patiria miniata (Pm) or the sea urchin Strongylocentrotus purpuratus (Sp); higher = stronger binding preference; most listed sequences are background and not binding sites
# Settings: the construct has about 5 more residues each side
# Experimental: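 Universal protein-binding microarray (Agilent AMADID 016060, 60-bp probes with a 35-bp variable region) incubated with 200 nM GST-fused Strongylocentrotus purpuratus Tbr T-box DNA-binding domain (residues 362-554) in PBS pH 7.5. Scored for every ungapped 8-mer (given with its reverse complement) as E-score (range -0.5 to 0.5; >0.45 counts as bound) and Z-score of median probe intensity. Two replicate arrays (datasets 1 and 2).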
# 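Also: protein at 200 nM in PBS on universal double-stranded arrays.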
row,Sequence,PBM E-score of 8-mer
1,TCTTTGCA,0.137 ± 0.03
2,CATGTAGC,-0.143 ± 0.069
3,CCGCAGAA,-0.294 ± 0.015
4,ATGACCCG,-0.084 ± 0.044
5,GCATACGA,-0.124 ± 0.059
6,CGTTTTCC,-0.282 ± 0.054
7,CTCAGGTC,-0.186 ± 0.022
8,GCCACCAC,0.134 ± 0.041
9,CTCAACCC,-0.189 ± 0.015
10,CACTTGCC,0.283 ± 0.064
11,CATGACCC,-0.166 ± 0.043
12,ATTTATGG,0.00481 ± 0.012
13,GGAACAGA,-0.0497 ± 0.048
14,CTGCCTAA,-0.127 ± 0.075
15,GGCGATGA,0.114 ± 0.0014
16,AGCCCGAG,-0.295 ± 0.075
17,AGAGCTCT,-0.174 ± 0.047
18,CGGCCAGC,-0.115 ± 0.036
19,ACCAGCAC,0.118 ± 0.065
20,CCAAGCCG,-0.184 ± 0.089
21,CCTCGAAA,-0.0758 ± 0.12
22,AAGGAGTA,-0.284 ± 0.037
23,ATCGTCTA,-0.0894 ± 0.035
24,CGACGTGC,0.238 ± 0.043
25,CGAACTTA,0.11 ± 0.008

row,Sequence,PBM E-score of 8-mer
1,AATTGTCG,0.179 ± 0.055
2,TATGGCCA,-0.256 ± 0.031
3,AGTCGACA,0.179 ± 0.051
4,CTTAACTC,-0.0424 ± 0.024
5,AAGGTATA,-0.182 ± 0.026
6,ATCCGCGA,0.144 ± 0.014
7,TAAGCGCA,0.00496 ± 0.048
8,ACCAATGG,-0.0793 ± 0.064
9,CACCCACC,0.236 ± 0.023
10,CCCCAGAA,-0.191 ± 0.042
11,TAAGTTGA,-0.0099 ± 0.0011
12,GGCATACA,-0.216 ± 0.045
13,CCCAGAGC,-0.0127 ± 0.077
14,ACAGTCAC,0.27 ± 0.016
15,ACTTCCCT,-0.11 ± 0.01
16,CAGGCGTA,-0.0837 ± 0.018
17,GAGTGCCC,-0.0162 ± 0.073
18,GGTTCACA,0.3973 ± 0.0018
19,CCGTACTC,-0.0815 ± 0.035
20,GGTCACCA,-0.115 ± 0.053
21,CTATCGAG,0.147 ± 0.013
22,AAGCTAAT,-0.211 ± 0.012
23,CGTGGGGC,-0.0544 ± 0.011
24,AGTTATCG,0.0587 ± 0.047
25,CTGTGTAC,-0.0828 ± 0.018

row,Sequence,PBM E-score of 8-mer
1,ACCAACAT,-0.0463 ± 0.08
2,GCCGCCTA,-0.219 ± 0.02
3,CAGATCCA,-0.0608 ± 0.00019
4,CAGGTGAA,0.199 ± 0.031
5,CCAGCGAA,0.104 ± 0.025
6,CCAAAACC,0.00645 ± 0.01
7,GTCAACAA,0.333 ± 0.0095
8,AGCCAGCC,-0.185 ± 0.0059
9,ACTGTCTG,0.126 ± 0.021
10,AAATAGTA,-0.15 ± 0.14
11,AGTGTGCC,0.121 ± 0.013
12,CGGGGGTA,-0.276 ± 0.062
13,CCCGAAAA,-0.25 ± 0.016
14,AATGCTGT,-0.0262 ± 0.063
15,AGGCTAAT,-0.255 ± 0.1
16,CACGCTTA,0.269 ± 0.02
17,CATGTACC,-0.137 ± 0.038
18,GCCTGCCA,0.137 ± 0.021
19,CATAAGAC,-0.153 ± 0.019
20,ATGGGTAG,-0.0887 ± 0.038
21,TGACCGAA,0.199 ± 0.059
22,ACTGTAAA,0.0831 ± 0.058
23,AAACCAAA,-0.151 ± 0.062
24,GAGGATTA,0.0837 ± 0.03
25,GCCGACAC,0.397 ± 0.0048

row,Sequence,PBM E-score of 8-mer
1,GAACTTGC,0.0607 ± 0.052
2,CTTCGATA,-0.0573 ± 0.016
3,ACCCGGAG,0.166 ± 0.062
4,GCAGCACA,-0.0507 ± 0.022
5,GGCAGTAA,-0.0812 ± 0.029
6,AGTCATCA,0.0178 ± 0.049
7,ATCGACTC,-0.167 ± 0.072
8,CGTCGCAG,-0.0249 ± 0.077
9,AGCCCAAC,-0.148 ± 0.067
10,GGATGGTA,-0.28 ± 0.051
11,GGACATTA,-0.302 ± 0.0096
12,ACGTAACC,-0.154 ± 0.03
13,CAATGATG,-0.0679 ± 0.018
14,CCCGGTGA,-0.22 ± 0.014
15,ACTGACCG,-0.083 ± 0.076
16,CATCTTGA,0.0681 ± 0.024
17,ATCTTGAG,-0.022 ± 0.099
18,CAGGGCGA,0.0768 ± 0.017
19,GGGACGAA,-0.152 ± 0.14
20,GGAGATAC,-0.243 ± 0.0034
21,CGTGACAA,0.364 ± 0.0037
22,CTTCCCGA,0.0262 ± 0.04
23,AACGCATT,0.0395 ± 0.12
24,CCCCTCCC,-0.15 ± 0.049
25,AATCAAGA,-0.0943 ± 0.11

row,Sequence,PBM E-score of 8-mer
1,TAAAAGTA,-0.298 ± 0.071
2,ATGGCCCA,-0.167 ± 0.093
3,TGATAAAA,0.116 ± 0.11
4,GATTTCAA,-0.221 ± 0.047
5,ATAGGACG,-0.386 ± 0.053
6,GGCTACCA,-0.2 ± 0.047
7,AGCCACCT,0.062 ± 0.0076
8,ATGATTAG,0.12 ± 0.0086
9,CGTTACGA,-0.0252 ± 0.082
10,GGTTCTGA,-0.214 ± 0.023
11,GCATGCGA,-0.0129 ± 0.011
12,GCCGTGAC,0.199 ± 0.011
13,CGGAGCAA,-0.127 ± 0.053
14,CTCTTACA,0.0754 ± 0.034
15,CGGATCTA,-0.102 ± 0.079
16,ACACGCCA,0.205 ± 0.0044
17,ACTCCCGC,0.104 ± 0.022
18,ATGTAAAC,0.0731 ± 0.026
19,GTTCGCCA,0.158 ± 0.011
20,GCCCGCAA,-0.0375 ± 0.015
21,AAAGGACT,-0.281 ± 0.012
22,ACAGATAT,-0.032 ± 0.017
23,AAACTAAG,-0.151 ± 0.021
24,ACGTTTCG,0.239 ± 0.066
25,CATCAAAA,-0.168 ± 0.033

row,Sequence,PBM E-score of 8-mer
1,GAATAGGA,-0.216 ± 0.0067
2,ATCATCAT,0.00539 ± 0.079
3,TACGAAAA,-0.00221 ± 0.059
4,ACTAAAAC,-0.0913 ± 0.026
5,AGCTGTCC,0.00624 ± 0.016
6,AGAGTTTG,0.0201 ± 0.029
7,TACGCCTA,0.0945 ± 0.018
8,GGGTGTCA,0.475 ± 0.0055
9,CCCCGACC,-0.146 ± 0.005
10,CGGCAACA,0.191 ± 0.04
11,AATAATGC,-0.0191 ± 0.025
12,CGTCACCA,0.258 ± 0.03
13,AAACCTGC,-0.0548 ± 0.029
14,TAGAGCGA,-0.0324 ± 0.03
15,AAAAAGAG,-0.24 ± 0.048
16,CGGGACGA,-0.244 ± 0.043
17,ACTTAAGC,0.185 ± 0.0074
18,CCAGGGCC,-0.00186 ± 0.02
19,GGAATGGA,-0.196 ± 0.031
20,AGACCGAG,-0.189 ± 0.04
21,GCGAATAA,0.291 ± 0.029
22,AAGTCCAG,-0.241 ± 0.011
23,ACGATAAG,0.152 ± 0.035
24,AATTCTAC,-0.119 ± 0.1
25,GCTTGCAA,0.0892 ± 0.014

row,Sequence,PBM E-score of 8-mer
1,TAATCTCA,0.0231 ± 0.018
2,ACGGGCTA,-0.229 ± 0.0092
3,CTTCTGAA,-0.117 ± 0.082
4,ACATGGCG,0.0493 ± 0.0019
5,ATAGGTAG,-0.036 ± 0.12
6,AAGTTAAA,0.0719 ± 0.053
7,CCGCGACG,0.0384 ± 0.061
8,GGGGTATA,-0.198 ± 0.023
9,CGGCATTC,-0.0562 ± 0.032
10,GGACAAAA,-0.16539 ± 9.2e-05
11,ATGCACCC,0.00698 ± 0.074
12,AGCCCACA,0.152 ± 0.013
13,ACATGGAC,0.142 ± 0.099
14,CACTCGAC,0.101 ± 0.052
15,CTGGGAAG,0.0242 ± 0.062
16,AAAGGGCC,-0.425 ± 0.043
17,CTGAGAAC,0.0561 ± 0.038
18,TCATTTCA,0.0743 ± 0.065
19,CAAATGTC,0.0448 ± 0.019
20,ATTGGCGC,0.244 ± 0.032
21,AACCGCAA,-0.0328 ± 0.037
22,GTCTCTAA,-0.0842 ± 0.0091
